From paper PMC4336329 (PLoS ONE, 2015)
The campaign covered roughly 310,000 compounds. About 14,000 (4.5%) showed an effect of 50% or more. The effect is printed as a negative number. Some of the results follow.

Each molecule was assayed against human ether-à-go-go-related gene (hERG) potassium channel (human, UniProt Q12809) (assay: primary screen, population patch clamp on CHO cells stably expressing hERG).
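Further: peak tail current of the secondary pulse compared with the same well before compound.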

Sequence of human ether-à-go-go-related gene (hERG) potassium channel (Q12809 whole entry, looked up): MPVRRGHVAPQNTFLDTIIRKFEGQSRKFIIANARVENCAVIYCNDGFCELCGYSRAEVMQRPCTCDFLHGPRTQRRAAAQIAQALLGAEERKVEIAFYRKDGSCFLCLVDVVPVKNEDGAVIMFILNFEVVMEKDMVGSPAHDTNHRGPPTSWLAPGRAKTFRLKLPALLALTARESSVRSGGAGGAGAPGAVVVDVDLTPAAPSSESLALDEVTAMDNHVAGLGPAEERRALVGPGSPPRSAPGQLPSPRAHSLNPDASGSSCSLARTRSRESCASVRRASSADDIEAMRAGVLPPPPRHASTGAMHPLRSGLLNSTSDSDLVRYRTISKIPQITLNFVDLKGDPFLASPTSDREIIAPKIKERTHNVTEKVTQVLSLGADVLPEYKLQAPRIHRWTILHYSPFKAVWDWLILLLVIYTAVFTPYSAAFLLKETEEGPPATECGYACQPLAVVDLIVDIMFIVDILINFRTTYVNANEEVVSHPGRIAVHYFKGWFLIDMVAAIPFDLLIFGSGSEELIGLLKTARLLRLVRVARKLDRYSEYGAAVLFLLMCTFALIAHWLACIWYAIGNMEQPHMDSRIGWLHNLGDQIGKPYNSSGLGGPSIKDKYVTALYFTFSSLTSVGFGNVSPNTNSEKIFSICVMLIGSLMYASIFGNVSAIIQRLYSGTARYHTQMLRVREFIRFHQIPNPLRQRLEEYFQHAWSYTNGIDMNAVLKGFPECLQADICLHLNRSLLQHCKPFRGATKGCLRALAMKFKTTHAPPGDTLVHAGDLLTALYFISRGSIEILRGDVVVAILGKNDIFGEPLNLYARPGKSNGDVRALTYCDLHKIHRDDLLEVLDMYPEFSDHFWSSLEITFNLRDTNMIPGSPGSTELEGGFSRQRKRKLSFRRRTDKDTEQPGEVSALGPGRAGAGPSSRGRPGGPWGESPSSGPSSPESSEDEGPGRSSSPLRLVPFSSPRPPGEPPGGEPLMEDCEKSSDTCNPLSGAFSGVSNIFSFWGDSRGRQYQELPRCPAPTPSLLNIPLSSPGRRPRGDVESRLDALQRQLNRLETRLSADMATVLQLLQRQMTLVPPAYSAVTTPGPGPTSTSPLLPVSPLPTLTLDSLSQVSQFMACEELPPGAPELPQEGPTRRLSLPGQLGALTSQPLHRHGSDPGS

SMILES | hERG current change (%, negative = inhibition) at 10uM
O=C(NCc1cc(F)ccc1F)C1CCC(=O)N(C2CCCCCC2)C1 (stereo not drawn) | 1.54%
O=C(COC(=O)c1ccc(O)cc1O)NC1CCCCCC1 | -2.41%
Cc1ccc(-c2nc3ccccc3c(=O)n2O)cc1 | 23.4%
O=C(NCc1ccccc1)c1ccc(CSc2ccccc2)o1 | -20.4%
COc1ccc(C(N)=O)cc1N | 21.7%
O=C(COC(=O)Cc1ccccc1[N+](=O)[O-])NCc1ccc(Cl)cc1 | -11%
Cc1ccc2oc(=O)c3cc(C(=O)N4CCN(C)CC4)sc3c2c1 | -16.8%
CC(=O)c1ccc(N2CCN(C(=O)c3cccs3)C(C)C2)c(F)c1 (stereo not drawn) | -17%
O=C(O)c1ccc(-n2c(-c3ccccc3)n[nH]c2=S)cc1 | 16.5%
CC1=C(C(=O)N2CCCCC2)C(c2cccs2)NC(=O)N1 (stereo not drawn) | 6.88%
O=C(Nc1ccsc1C(=O)NC1CCCCC1)c1ccc(F)cc1 | -4.11%
Brc1ccc(CNCC2CCCO2)cc1 (stereo not drawn) | 4.37%
CCN(CC)C(=O)CSc1nc2c(sc(=S)n2-c2ccccc2)c(=O)n1-c1ccc(OC)cc1OC | 0.414%
CN1C(=O)C2ON(c3ccccc3)C(c3cccs3)C2C1=O (stereo not drawn) | -13.6%
CCOc1ccc(NC(=O)CSc2nnc(-c3ccccc3Cl)n2Cc2ccco2)cc1 | -16.7%
Cc1oc(-c2ccc(Cl)cc2)nc1CN1CCCC(C(=O)NCc2ccco2)C1 (stereo not drawn) | -71.9%
Cc1cc(S(=O)(=O)N2CCCC(N(C)CCc3ccccn3)C2)c(C)s1 (stereo not drawn) | -46.6%
O=C(Nc1ccc(Br)cc1F)c1cccnc1 | -5.78%
COc1cc2c(cc1OC)CN(Cc1cc(=O)n3cc(C)ccc3n1)CC2 | -33.1%
O=C(NCC1CCCO1)C1CCCN(S(=O)(=O)c2ccc(Cl)cc2)C1 (stereo not drawn) | -0.983%
CCc1cccc2c(C(=O)CN3C(=O)N(C)C4(CCCCC4)C3=O)c[nH]c12 | -11.7%
Cc1ccccc1Cn1cc(/C=N/n2cnnc2)c2ccccc21 | 14.8%
O=C(CSc1nnc(Cc2ccc3c(c2)OCO3)n1C1CCCCC1)NC1CCCC1 | -0.948%

SMILES | hERG current change (%, negative = inhibition) at 10uM
COc1ccccc1N1CCN(S(=O)(=O)CCNC(=O)Cc2ccc(F)cc2)CC1 | -18.7%
CC1Cc2ccccc2N1C(=O)CN1C(=O)CN(C)C(=O)c2ccccc21 (stereo not drawn) | 11.3%
CCn1c(SCC(=O)NNC(=O)c2ccc(C)cc2)nnc1C1CC1 | 26.2%
COc1ccc(CNC(=O)c2ccc(N3CCOCC3)c([N+](=O)[O-])c2)cc1 | -52.1%
Cc1cc(C)c(C)c(S(=O)(=O)N[C@@H](C)C(=O)OCc2cc(=O)n3cc(Br)ccc3n2)c1C | -47%
COc1ccc(/C=C/c2nnc(NC(=O)COc3ccc(C)cc3)s2)cc1 | 12.5%
CCOC(=O)CSc1nc2ccc(S(=O)(=O)N3CCOCC3)cc2[nH]1 | 17.4%
O=C(Nc1ccc2c(c1)OCO2)c1cccc(Cl)c1 | 1.59%
O=C1NC2(CCCCC2)NN1c1ccccc1 | 13.8%
O=C(OC1CCCCC1)c1ccc(NC(=O)c2ccco2)cc1 | -23.6%
O=C(CCCN1C(=O)c2ccccc2C1=O)Oc1ccc(F)cc1 | -19.2%
O=C(CS(=O)(=O)c1ccccc1Cl)N1CCOCC1 | 21.9%
COCCNC(=O)CCn1nc(-c2ccc(C)cc2)c2ccccc2c1=O | -18.6%
O=c1cc(CN2CCc3ccccc32)c2ccc(O)cc2o1 | -0.218%
Cc1cc(=O)oc(C)c1C(=O)NCCC1=CCCCC1 | -5.61%
O=S(=O)(c1ccccc1Cl)N1CCC(O)(c2cccnc2)CC1 | 20.2%
O=C(Nc1ccccc1N1CCOCC1)c1cccc(S(=O)(=O)Nc2ccccc2F)c1 | -37.1%
O=C(Cc1ccccc1)NCC(=O)Nc1cccc(Br)c1 | -9.9%
NCCCC[C@H]1CNC(=S)N1CCc1cccc(F)c1 | -3.37%
COc1ccccc1/C=C\C=N\NC(=O)c1ccco1 | -6.34%
CN(N)c1nc2ccccc2nc1C(F)(F)F | 12%
COc1ccc2oc(C(=O)N(Cc3ccco3)Cc3cccs3)c(C)c2c1 | -23.5%
CCc1cc(C(=O)OC)c(NC(=O)CC2SC(=NC)N(C)C2=O)s1 (stereo not drawn) | -1.73%

SMILES | hERG current change (%, negative = inhibition) at 10uM
O=C(CCc1nnc2ccc(NCCCN3CCCC3=O)nn12)NCc1ccccc1Cl | -1.05%
COc1ccccc1N1CCN(/N=C\c2ccccc2)CC1 | 8.74%
S=c1[nH]nc(-c2ccco2)n1/N=C/C(Cl)=C/c1ccccc1 | 5.55%
COc1ccc(-c2cc(C(=O)NN)[nH]n2)cc1OC | 6.6%
O=C(O)CCN1C(=O)/C(=C\c2cccc(OCC(=O)Nc3ccc(Cl)cc3)c2)SC1=S | 11.2%
O=C(c1cc(COc2ccc(F)cc2Cl)on1)N1CCCCC1c1cccnc1 (stereo not drawn) | -41.8%
CN1CCN(C(=O)c2cccc(COc3cc(Cl)ccc3Cl)c2)CC1 | -41.6%
CCOc1ccc(NC(=O)/C(C#N)=C/c2cn(CC(=O)O)c3ccccc23)cc1 | 8.76%
COc1ccc(NC(=O)Nc2ccon2)c(OC)c1 | 14.8%
Cc1cc(C)n(C(C)Sc2ccccc2)n1 (stereo not drawn) | 10.5%
CC(C)CC(C(=O)NC(C)(C)C)N(Cc1ccccc1Cl)C(=O)c1snc(C(N)=O)c1N (stereo not drawn) | 7.57%
CC(C)(C)NC(=O)C(Cc1ccccc1)N1C(=O)c2ccccc2C1=O (stereo not drawn) | 6.68%
c1ccc(CO/N=C(\c2ccc(C3CC3)nc2)C2CC2)cc1 | 13.5%
CCC(C)c1ccc(NC(=O)COC(=O)c2nc3nccc(C)n3n2)cc1 (stereo not drawn) | -10.9%
CC(=O)c1ccc(N(C(=O)Cc2c[nH]c3ccccc23)C(C(=O)NC2CCCCC2)c2cccs2)cc1 (stereo not drawn) | 7.81%
COc1cccc(C(=O)Nc2ccc3[nH]c(=O)[nH]c3c2)c1OC | 26.2%
COCCNC(=O)C1Nc2ccc(OC(F)(F)F)cc2C2C=CCC12 (stereo not drawn) | -17%
CC(C)c1c(O)nc(SCC(=O)N2CCOCC2)[nH]c1=O | -14.9%
Cc1cc(-c2ccco2)n(CC(=O)NCc2ccco2)n1 | 8.48%
O=C(O)CC(CC(=O)Nc1nncs1)c1ccccc1 (stereo not drawn) | -4.93%
CCC1(c2ccc(OC)cc2)NC(=O)N(CC(=O)c2ccc3c(c2)OCCO3)C1=O (stereo not drawn) | -1.85%
Cc1ccc(-c2cn(CCN)c(-c3ccncc3)n2)cc1 | -5.35%
CC(=O)C[C@H]1c2cc(C(F)(F)F)ccc2S(=O)(=O)N1C1CCCC1 | -12.1%

SMILES | hERG current change (%, negative = inhibition) at 10uM
C=CCOc1ccc(Cl)cc1C(=O)O | 6.26%
FC(F)(F)c1cccc(CNC2CCN(Cc3ccccc3)CC2)c1 | -28.3%
CC1C(c2cccs2)=[N+]([O-])C(C)(C(=O)c2cccs2)N1O (stereo not drawn) | 23.2%
CC1Cc2nc(SCC(=O)N3CCCC3)n(C)c(=O)c2S1 (stereo not drawn) | -7.79%
Cc1ccc(NC(=O)c2ccc(CSc3nnc(-c4ccncc4)n3C)cc2)c(C)c1 | -4.89%
CCOC(=O)Cc1cc(-c2ccc(O)cc2)nc2ccc3ccccc3c12 | -9.56%
CC(=O)c1cccc(CN2CCN(Cc3ccccc3)C(CCO)C2)c1 (stereo not drawn) | -1.84%
N#Cc1ccccc1OCC(=O)NNC(=O)c1ccncc1 | 9.65%
CCOC(=O)c1cc(-c2ccco2)nc2c1c(C)nn2-c1ccccc1 | 11.2%
COc1ccccc1/C=N/NC(=O)C(C)Cn1cnc2ccccc21 (stereo not drawn) | 0.86%
CC(=O)Nc1ccc(CN2CCN(C3CCCCC3)C(CCO)C2)cc1 (stereo not drawn) | 13.7%
Clc1ccc(CNC23CN4CN(CN(C4)C2)C3)c(Cl)c1 | -1.63%
COc1ccc(OC)c(NC(=O)CSc2nnnn2C)c1 | 13.3%
CCN1CCN(C2=C(NS(=O)(=O)c3ccc(Br)cc3)C(=O)c3ccccc3C2=O)CC1 | -61.5%
Br.Cn1c(=N)n(CC(=O)c2cccs2)c2ccccc21 | -0.146%
CCC(C)NS(=O)(=O)c1ccc(S(=O)(=O)N(CCc2ccc(OC)c(OC)c2)Cc2cccs2)cc1 (stereo not drawn) | -5.84%
CN1CCN(c2nc(-c3cccnc3)nc3ccccc23)CC1 | -48.5%
Cc1ccc2nc(NC(=O)CN(C)S(=O)(=O)c3cccc4nsnc34)sc2c1 | 24.9%
Cc1onc(-c2ccc(Cl)cc2Cl)c1-c1csc(COc2ccccc2)n1 | 0.985%
CCCCOc1cccc(/C=N/NC(=O)c2csc(C)c2C)c1 | 12%
COc1cc(O)c(C(CC(=O)N2CCN(c3ccccc3)CC2)c2cc(OC)c(OC)c(OC)c2)c(OC)c1 (stereo not drawn) | 6.34%
